# Assay results from PMC6919601, “Identification of Plasmodium dipeptidyl aminopeptidase allosteric inhibitors by high throughput screening” (PLoS ONE, 2019).
# “And” between values parts separate entries of the source, which are not always exact repeats. Equal values may be shown once. Among all 110,000 compounds or so, about 230 (0.21%) showed an effect of 50% or more. Some of the results follow.
# Target: DPAP1 (Plasmodium falciparum, UniProt Q8IIJ9)
# Experiment: primary screen, percent inhibition; read by cleavage of a fluorogenic dipeptide substrate; higher = more effect of the substance
# Set-up: species or system P. falciparum D10 trophozoite lysates; single well
# 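Further: 30 min substrate incubation versus DMSO and 10 µM JCP410 controls.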
# Chain of DPAP1 (Q8IIJ9 whole entry, looked up): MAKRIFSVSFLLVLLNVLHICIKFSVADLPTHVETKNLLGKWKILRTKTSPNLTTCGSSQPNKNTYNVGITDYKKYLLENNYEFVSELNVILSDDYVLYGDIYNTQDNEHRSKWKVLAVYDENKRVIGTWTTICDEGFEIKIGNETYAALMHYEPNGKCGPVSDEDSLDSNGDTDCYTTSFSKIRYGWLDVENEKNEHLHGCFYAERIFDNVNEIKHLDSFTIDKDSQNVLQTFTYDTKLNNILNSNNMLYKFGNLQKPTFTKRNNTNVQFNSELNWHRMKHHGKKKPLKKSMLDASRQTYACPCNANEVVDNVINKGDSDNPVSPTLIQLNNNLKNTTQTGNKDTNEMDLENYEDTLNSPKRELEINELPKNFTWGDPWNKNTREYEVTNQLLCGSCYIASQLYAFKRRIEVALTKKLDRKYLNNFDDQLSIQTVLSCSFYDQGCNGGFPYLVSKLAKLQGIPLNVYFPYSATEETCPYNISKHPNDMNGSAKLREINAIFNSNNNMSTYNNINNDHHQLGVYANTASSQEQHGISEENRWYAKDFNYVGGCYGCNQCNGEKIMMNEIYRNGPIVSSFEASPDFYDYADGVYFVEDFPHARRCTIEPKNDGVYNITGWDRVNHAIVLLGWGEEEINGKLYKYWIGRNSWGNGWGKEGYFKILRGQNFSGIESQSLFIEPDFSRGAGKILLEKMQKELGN
row,Structure (SMILES),% Inhibition @ 10 uM
1,CC1CCN(C2CC(=O)N(c3ccc(N4C(=O)CC(N5CCC(C)CC5)C4=O)cc3)C2=O)CC1 (centres unmarked),-1.11%
2,Cc1cccc(C(=O)Nc2ccc(Cl)cc2Cl)c1,-3.04%
3,CN(c1ccccc1C(=O)Nc1ccc2ccccc2c1)S(C)(=O)=O,-0.99%
4,CCc1ccccc1NC(=O)C(C)Oc1ccccc1 (centres unmarked),3.09%
5,Cc1nn(Cc2ccccc2Cl)c(C)c1NC(=O)COCc1cc(-c2cccs2)on1,-3.25%
6,N#C/C(=C\c1ccc2c(c1)OCO2)c1n[nH]c(N)c1C#N,0.779%
7,CC(C)C[C@H](NS(=O)(=O)c1ccccc1)C(=O)NCC#N,-3.04%
8,CCCCN(C)C(=O)c1coc(=O)c2ccccc12,0.974%
9,O=C(Nc1ccc(-c2nc(O)c3ccccc3n2)cc1)C1CCCCC1,2.42%
10,Cc1ccc(-c2nc(CS(=O)(=O)CC(=O)NCCN(C)C)c(C)o2)cc1,3.19%
11,CCN(Cc1ccccc1)C(=O)C(c1ccccc1)N1Cc2ccccc2C1=O (centres unmarked),-4.96%
12,O=C(Nc1cccc(OC(F)(F)F)c1)c1cccnc1,-3.83%
13,Cc1cc(C)n(CC(=O)O)c(=O)n1,-0.0267%
14,CCOc1ccc(-c2nonc2NC(=O)Cc2ccc(Cl)cc2)cc1,-1.11%
15,Cc1ccc(CS(=O)Cc2ccc(C(=O)NCCC(C)C)o2)cc1 (centres unmarked),5.91%
16,Cc1cccc(NC(=O)c2cccc(S(=O)(=O)N3CCCCC3)c2)c1,-11.4%
17,Cc1nnc2nc(SCC(=O)NCc3ccco3)n(-c3ccccc3Cl)c(N)c1-2,-3.93%
18,COc1ccc(C2CC(O)=C/C(=N/C3CCCCCC3)C2)cc1 (centres unmarked),-0.105%
19,COc1cccc(Nc2nc(-c3cc(C)ccc3C)cs2)c1,2.78% and 5.29%
20,Cn1c(=O)c2c(O)c(Sc3ccccc3C(=O)O)c(=O)n(C)c2n(C)c1=O,-1.07%
21,COc1ccc(CNCc2ccc(Cl)cc2)cc1OC,-1.92%
22,COc1cc2sc(C)nc2cc1C,0.0345%
23,Cc1cc(=O)oc2c1c(C)nn2-c1ccc(C(=O)O)cc1,4.96%
24,C=CCC1(C#N)C(S)=NC(C)=C(C(C)=O)C1c1ccc(Cl)cc1 (centres unmarked),-2.81%
25,COc1ccc(CC(=O)Nc2nc3nc(C)cc(O)n3n2)cc1,0.401%

row,Structure (SMILES),% Inhibition @ 10 uM
1,COc1ccc(-c2nnn(CC(=O)O)n2)cc1,3.73%
2,CCCOC(=O)C1=C(C)NC(=O)NC1c1ccc(CC)cc1 (centres unmarked),14.5%
3,O=C(NCCCN1CCCCCC1)C1CC(=O)N(CCc2ccccc2)C1 (centres unmarked),3.24%
4,Cc1cc2c(cc1Br)NC(=O)C21C(C#N)=C(N)OC2=C1C(=O)CC(C)(C)C2 (centres unmarked),-4.15%
5,CCCCOc1ccc(N2C(=O)CC(N3CCN(Cc4ccc5c(c4)OCO5)CC3)C2=O)cc1 (centres unmarked),0.52%
6,CC1CC(C)CN(c2cnnc3c(Cl)cccc23)C1 (centres unmarked),2.76%
7,CC1(C)CC(C)(C)OC(c2ccccc2)=N1,2.94%
8,CCc1ccc2oc(C(=O)Nc3nonc3C)c(C)c2c1,3.51%
9,CCOC(=O)c1c(C)n(-c2ccc(OC)cc2)c2ccc(O)c(CN3CCOCC3)c12,1.76%
10,Cc1ccc(C(=O)Nc2ccc(C)c(O)c2)cc1C,0.907%
11,CCOc1cc2c(cc1OCC)C(c1cc(OC)ccc1F)NCC2 (centres unmarked),1.93%
12,COCCCNC(=O)CSc1nc2c(sc3ccccc32)c(=O)n1CCC(=O)NC(C)C,6.26%
13,COc1ccc(NC(=O)CN(c2ccc(Cl)cc2Cl)S(=O)(=O)c2ccccc2)c(OC)c1,-2.09%
14,COC(=O)c1c(NC(=O)CCC(=O)O)sc(C)c1-c1ccc(C)c(C)c1,29.7%
15,C=Cc1ccc(Cn2c(C(=O)O)c(CNCc3ccc(C)o3)c3ccccc32)cc1,5.94%
16,CC1=C(C(=O)Nc2ccccc2C)C(c2ccc(N(C)C)cc2)NC(S)=N1 (centres unmarked),-3.35%
17,CCCCNS(=O)(=O)c1ccc(OC)c(-c2nnc3c4ccccc4c(C)nn23)c1,-3.14%
18,O=C(NCc1ccc(F)cc1)c1cc2ccccc2oc1=O,3.94%
19,CS(=O)(=O)N(CC(=O)Nc1ccccc1C(F)(F)F)Cc1ccccc1,-4.39%
20,CC(=O)c1sc(NC(=O)COc2ccc(C)c(C)c2)nc1C,1.08%
21,COc1cc(/C=C2\C(=O)N(c3ccccc3)N=C2C)c([N+](=O)[O-])cc1OC,3.83%
22,Cc1ccc(Cn2c(C)c(C=O)c(C(=O)O)c2C)cc1,-3.53%
23,Cc1ccc(Oc2ccc(N3C(=O)c4ccc(Oc5ccc(N)cc5)cc4C3=O)cc2)cc1C,3.47%
24,COc1ccc(OC)c(NC(=O)CCCOc2ccc(Cl)cc2C)c1,5.73%
25,COc1ccc(NC(=O)CN(c2ccccc2F)S(=O)(=O)c2ccccc2)cc1,-0.185%

row,Structure (SMILES),% Inhibition @ 10 uM
1,CC1=C(C(=O)Nc2ccc(C)cc2)C(c2ccc(Cl)cc2Cl)NC(S)=N1 (centres unmarked),-1.76%
2,COCCNC(=O)c1sc2ncn(CC(=O)N3CCCCC3C)c(=O)c2c1C (centres unmarked),4.35%
3,Cc1ccc(OCCOc2ccc(/C=C3\C(=N)N4N=C(N5CCOCC5)SC4=NC3=O)cc2)cc1,7.84%
4,O=C(CC(c1ccccc1)c1ccccc1O)N1CCNCC1 (centres unmarked),3.54%
5,O=C(O)/C(=C\c1ccccc1)NC(=O)c1cccc(Br)c1,-4.13%
6,Cc1cc(C)c2c(CC(=O)Nc3cccnc3)coc2c1,-0.671%
7,Cc1[nH]nc(O)c1C(c1cc2c(cc1Cl)OCO2)c1c(O)n[nH]c1C,5.07%
8,O=C(O)[C@@H]1CSC(c2ccco2)N1 (some centres unmarked),-9.13%
9,O=C1CCCC2=C1C(c1ccc(OCc3ccccc3)cc1)C1=C(CCCC1=O)O2,0.52%
10,O=C1OC(c2ccc(Cl)cc2)=N/C1=C\N1CCCCC1,-0.48%
11,CC(CCc1ccccc1)NCc1c(C(=O)O)n(Cc2ccc(F)cc2)c2ccccc12 (centres unmarked),3.54%
12,Cc1ccc(CN2CCN(CC(=O)NC(C)c3ccccc3)C2=O)cc1 (centres unmarked),-2.7%
13,C=CCn1c(C(O)c2ccccc2)nc2ccccc21 (centres unmarked),-1.37%
14,Cc1cc(C)nc(NC(=O)NS(=O)(=O)N(Cc2ccccc2)c2ccccc2)n1,0.716%
15,CCOC(=O)c1[nH]c2c(c1Cc1ccccc1C)C(=O)CC(C)(C)C2,-3.87%
16,O=S(=O)(NCc1csc(-c2cccnc2)n1)c1ccc(Br)cc1,-0.72%
17,COc1cc(OC)cc(-c2nc3cc(Cl)ccc3o2)c1,0.993%
18,Cc1ccc(OCCn2cnc3ccccc32)c(C(C)C)c1,1.72%
19,COc1ccc(S(=O)(=O)Nc2ccncc2)c(C)c1C,-2.21%
20,COc1ccc2c(c1)C(=O)N(c1ccccc1)C(=O)/C2=C\N1CCCCC1,9.01%
21,CCN(CC)C(=O)Cn1cc(SCC(=O)NC(C)(C)C)c2ccccc21,2.19%
22,O=C(NCc1ccc(Cl)cc1)C(=O)NC1CCCCC1,1.57%
23,COc1ccc(/N=C2/S/C(=C\c3cc(OC)c(OC)c(OC)c3)C(=O)N2C)cc1,0.161%
24,COc1cccc(C2=NN(C(=O)c3ccco3)C(O)(C(F)(F)F)C2)c1 (centres unmarked),-5.14%
25,CCOC(=O)N1CCC(NC(c2nnc(-c3ccccc3)o2)c2ccc(F)cc2Cl)CC1 (centres unmarked),-2.29%

row,Structure (SMILES),% Inhibition @ 10 uM
1,CCN1CCN(c2ncnc3c2c(-c2ccccc2)cn3-c2cccc(Cl)c2)CC1,3.36%
2,CCN(CC)C(=O)CN(C#N)c1nc(OC)nc(N(C)C)n1,-6.37%
3,c1ccc(Oc2cc(-c3ccccc3)nc(-c3ccccc3)n2)cc1,-3.26%
4,CC1CC(C)CN(C(=O)Cn2cc3c(n2)CCCCC3)C1 (centres unmarked),-3.35%
5,C=C(C)[C@H]1CC=C(CN2CCc3cc(OC)c(OC)cc3C2c2cccc(Cl)c2)CC1 (some centres unmarked),-0.13%
6,CC1CCN(S(=O)(=O)c2ccc(NC(=O)CC(C)c3ccccc3)cc2)CC1 (centres unmarked),-1.99%
7,Cc1ccc(/C(=C\N2CCCC2)S(=O)(=O)c2ccc(C)cc2)cc1,-6.74%
8,CC1CCN(CC(O)COc2ccc3ccccc3c2)CC1 (centres unmarked),-5.96%
9,COc1nc2c(c(=O)n(C)c(=O)n2C)n1Cc1ccccc1Cl,0.493%
10,Cc1ccc(Cn2c(=O)c3cccnc3n(Cc3cc(=O)n4cc(Cl)ccc4n3)c2=O)cc1,-3.66%
11,COc1ccccc1OCC(=O)Nc1ccc(S(=O)(=O)N2CCOCC2)cc1,-8.59%
12,O=C(Cn1cnc2c(cnn2-c2ccccc2)c1=O)c1ccc(Cl)cc1,-5.37%
13,COC(=O)c1cc(OC)c(OC)cc1NC(=O)C12CC3CC(CC(C3)C1)C2,-0.128%
14,CC1(C)CC(=O)C2=C(C1)NC(=O)CC2c1ccccc1Cl (centres unmarked),-4.49%
15,O=C(NCc1ccccc1)c1ccc2snnc2c1,-9.25%
16,CCOc1ccc(NC(=O)Nc2ccc(NC(=O)Nc3ccc(OCC)cc3)cc2)cc1,-3.04%
17,CN(c1ccc(C(=O)Nc2cccc(N(C)S(C)(=O)=O)c2)cc1)S(C)(=O)=O,-0.469%
18,O=C(NCCN1CCC(Cc2ccccc2)CC1)C1CCN(c2nc3ccccc3n3cccc23)CC1,-3.18%
19,CS(=O)(=O)N(CC(=O)Nc1ccccc1)c1ccc(Br)cc1,0.108%
20,CCOc1nc(-c2ccc(C)cc2)ccc1-c1noc(C(C)C)n1,-5%
21,O=C(NCCC1=CCCCC1)c1cc(-c2ccco2)[nH]n1,7.2%
22,Cc1ccccc1Cn1nnc2c(O)nc(C3CCCN(C(=O)c4ccccc4Cl)C3)nc21 (centres unmarked),3.81%
23,O=C(CSc1nnc(CN2CCOCC2)n1-c1ccccc1)c1ccc2c(c1)CCCC2,-2.42%
